Measured values published in PubChem BioAssay AID651820 (National Center for Advancing Translational Sciences (NCATS), 2012).
Hit rate of the full screen: of about 340,000 compounds, about 12,000 (3.5%) were called active. This list was built around the results that the source calls inconclusive (neither active nor inactive); the mix of calls is not that of the screen. Calls come from the whole dose curve; as a rule, active = well fitted inhibition curve with a large enough effect; inconclusive = small, poorly fitted or top-dose-only effect, or another doubt; inactive = no such curve, though single readings can be large or run the other way. Potencies of inconclusive entries are left out as doubtful fits.
% is set by controls: 0 for no effect and ±100 for the full control effect; potency is the fitted concentration of half-maximal effect; tags give direction and shape of the fitted curve.

Assay: qHTS Assay for Inhibitors of Hepatitis C Virus (HCV)
Conditions: Huh7.5.1 HCVcc-Cre (HCVcc is cell-culture hepatitis C virus) infection, luciferase reporter, 44 h; activity change, negative = inhibition: at 41.8 µM (top of the series) unless noted
In short: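 HCVcc-Cre virus at an moi near 0.5 was added right after compound to cells cultured 4 h from seeding (1,000 cells/well). Luciferase activity was determined 44 h later, 15 min after substrate addition at RT.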
In the case of `COc1cc(C(=O)NCC(c2cccs2)N2CCc3ccccc32)cc(OC)c1OC` (stereo not drawn), the Potency is reported as inconclusive [inhibitor, single point]. In the case of `CCCCNC(=O)c1onc(CSc2ccc(Cl)cc2)c1C(=O)NCCCC`, the Potency is reported as inconclusive [inhibitor, partial curve]. For `C/C=C/c1ccc(OCCCCN2CCN(CC)CC2)c(OC)c1`, the Potency was inconclusive [inhibitor, partial curve, poor fit]. In the case of `COc1ccc(-c2ccc(S(=O)(=O)NCC3CCCO3)cc2)cc1` (stereo not drawn), the Potency is reported as inconclusive [inhibitor, single point]. For `COc1cccc(CN(C)CCCn2ccc(NC(=O)OCc3ccccc3)nc2=O)c1`, the Potency was inconclusive [inhibitor, full curve, poor fit]. For `COc1ccc(/C=N/NC(=O)c2ccn[nH]2)cc1COc1ccc(F)cc1`, the Potency was inconclusive [inhibitor, single point]. With `COC(=O)[C@H](Cc1c[nH]c2ccccc12)NC(=O)NCc1ccc(OC)c(OC)c1` the “activity change, negative = inhibition” value was inactive: -10.9%. For `Cc1ccccc1N(C(=O)Cc1ccsc1)C(C(=O)NC1CCCCC1)c1ccc(F)cc1` (stereo not drawn), the “activity change, negative = inhibition” value was inactive: 0.808%. In the case of `Cc1cc(C(=O)COC(=O)CNS(=O)(=O)c2ccc3ccccc3c2)c(C)n1-c1ccccc1`, the “activity change, negative = inhibition” value is reported as inactive: 6.58%. With `Cc1ccc(/C(O)=C2/C(=O)C(=O)N(CC(=O)O)C2c2ccc([N+](=O)[O-])cc2)cc1` (stereo not drawn) the “activity change, negative = inhibition” value was inactive: 5.3%. In the case of `COc1ccc(S(=O)(=O)Nc2ccc(F)cc2)cc1N(C)S(=O)(=O)c1ccc(Cl)cc1`, the Potency is reported as inconclusive [inhibitor, single point]. With `O=C(NNC(=O)c1cc(OCC(F)(F)F)ccc1OCC(F)(F)F)c1ccc(Cl)c(Cl)c1` the Potency was inconclusive [inhibitor, partial curve]. With `Cc1ccc(N=Nc2cc(C)ccc2O)c(C)c1` the “activity change, negative = inhibition” value was inactive: 7.18%. In the case of `COc1ccc2c(c1)OC[C@H]1[C@H]2N2C(=O)CN(Cc3ccc(C)cc3)C(=O)[C@@]2(C)[C@H]1c1ccccc1`, the Potency is reported as active: 11.2 µM. For `CN(C(=S)Nc1ccc(Oc2ccccc2)cc1)C1CCCCC1`, the Potency was inconclusive [inhibitor, partial curve, poor fit]. For `O=C(CCCN1CCC(O)(c2cccc(C(F)(F)F)c2)CC1)c1ccc(F)cc1`, the Potency was inconclusive [inhibitor, partial curve]. For `Cc1c(C(c2cc(O)ccc2Cl)c2c(C)n(C)n(-c3ccccc3)c2=O)c(=O)n(-c2ccccc2)n1C`, the Potency was inconclusive [inhibitor, single point]. With `Cc1cc(C)n(-c2nc(-c3ccccc3)cs2)n1` the Potency was inconclusive [inhibitor, single point]. For `O=C(c1ccccc1)c1ccc(Cn2cc(CCCO)nn2)cc1`, the Potency was active: 10 µM. In the case of `O=C(CCN1C(=O)/C(=C/c2ccc(Cl)cc2)SC1=S)NCCCn1ccnc1`, the Potency is reported as inconclusive [inhibitor, single point]. For `Cc1ccc(NS(=O)(=O)c2ccc(C)c(C(=O)NCC(c3ccccc3)N(C)C)c2)cc1` (stereo not drawn), the Potency was inconclusive [inhibitor, single point]. In the case of `C[C@H](CO)N1C[C@H](C)[C@@H](CN(C)Cc2ccc(-c3ccccc3)cc2)Oc2c(NC(=O)c3ccncc3)cccc2C1=O`, the Potency is reported as active: 10 µM. For `CC(=O)Oc1ccc2ccccc2c1C(NC(=O)Cc1ccccc1)c1ccccc1` (stereo not drawn), the Potency was inconclusive [inhibitor, single point]. With `COc1ccccc1N1CCN(C(CNS(=O)(=O)c2cccs2)c2cccnc2)CC1` (stereo not drawn) the Potency was inconclusive [inhibitor, single point]. For `COc1ccc(CN2C(=O)NC3(CCCc4ccccc43)C2=O)cc1F` (stereo not drawn), the Potency was inconclusive [inhibitor, partial curve, poor fit]. With `CCOC(=O)C1=CC(=C2C(=O)N(CC)C(=S)N(CC)C2=O)c2ccccc2O1` the “activity change, negative = inhibition” value was inactive: 20.3%. For `COc1cc(S(=O)(=O)N2CCOCC2)ccc1NC(=O)c1cc2c(s1)CCC2`, the Potency was inconclusive [inhibitor, single point]. For `COc1ccc(S(=O)(=O)Cc2ccc(C(=O)N3CCCC3)o2)cc1`, the “activity change, negative = inhibition” value was inactive: -10.4%. With `O=S(=O)(NCCc1csc(-c2cccnc2)n1)c1cccc(F)c1` the “activity change, negative = inhibition” value was inactive: 3.8%. For `O=C(NCc1ccc2c(c1)OCO2)C1CCN(C(=O)Nc2ccc(Cl)cc2)CC1`, the Potency was inconclusive [inhibitor, full curve]. In the case of `O=C(CCC(=O)N(CC(=O)NC1CCCC1)C1CCCCC1)Nc1ccccn1`, the “activity change, negative = inhibition” value is reported as inactive: -12.5%. For `CC(=O)Nc1ccc(S(=O)(=O)NCc2ccncc2)cc1`, the Potency was inconclusive [inhibitor, partial curve]. In the case of `O=C(NCC(c1ccccc1Cl)N1CCCC1)c1ccc(N2CCCC2=O)cc1` (stereo not drawn), the Potency is reported as inconclusive [inhibitor, single point]. In the case of `COCCNC(=O)c1cc(-c2ccc(OC)c(OC)c2)on1`, the “activity change, negative = inhibition” value is reported as inactive: -8.54%. With `O=C(Nc1ccc(F)c(F)c1)C1CCN(S(=O)(=O)c2cccc3nonc23)CC1` the Potency was inconclusive [inhibitor, single point]. In the case of `Cc1c(C=O)c2ccccn2c1C(=O)c1cccs1`, the Potency is reported as inconclusive [inhibitor, partial curve, poor fit]. With `COCCCN1C(=O)C(=O)/C(=C(/O)c2ccc(C)cc2)C1/C=C/c1ccccc1` (stereo not drawn) the Potency was inconclusive [inhibitor, single point]. For `CN1C2C=C3C(C#N)=C(N)C(C#N)(C#N)[C@@H](c4cccc(F)c4)[C@@H]3C1CC2` (stereo partly drawn), the “activity change, negative = inhibition” value was inactive: 0.726%. For `Cc1cc(C)n(C(=O)c2nn(C)c(C)c2[N+](=O)[O-])n1`, the “activity change, negative = inhibition” value was inactive: 6.36%. In the case of `Cc1ccc(C)c(CSc2nnc(-c3cccs3)n2Cc2ccco2)c1`, the Potency is reported as inconclusive [inhibitor, partial curve]. With `Cc1nn(Cc2ccccc2Cl)c2sc(C(=O)NCc3ccc4c(c3)OCO4)cc12` the Potency was inconclusive [inhibitor, single point]. With `N#CCC(CNc1ncc(C(F)(F)F)cc1Cl)OC(=O)c1cccc(C(F)(F)F)c1` (stereo not drawn) the “activity change, negative = inhibition” value was inactive: 8.88%. In the case of `CC1CCCC(NC(=O)COC(=O)/C=C/c2ccc(F)cc2)C1C` (stereo not drawn), the “activity change, negative = inhibition” value is reported as inactive: 1.95%.
